Results from PubChem BioAssay AID602310 (National Center for Advancing Translational Sciences (NCATS), 2012).
“And” between values parts separate entries of the source, which are not always exact repeats. Equal values may be shown once. In all, about 410,000 compounds went through this assay and about 310 (0.076%) were called active. About 2% were inconclusive and are not listed. Calls follow the shape of the dose curve; as a rule, active = well fitted curve in the direction sought with a large enough effect; inconclusive = small, poorly fitted or top-dose-only effect; inactive = flat fitted curve, though single readings scatter. The entries are a selection whose mix differs from that of the whole data set.

target: DNA dC->dU-editing enzyme APOBEC-3G (Homo sapiens) (UniProt Q9HC16); test: qHTS for Inhibitors of Vif-A3G Interactions: qHTS; conditions: HeLa A3G-eYFP + Vif (tagged APOBEC3G with the HIV-1 protein that degrades it), YFP fluorescence, overnight; at 46.1 µM (top of the series);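 also: hits raise eYFP signal because A3G escapes Vif-driven loss; nearly all actives have a fitted effect of over 60% in size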
Excerpt: The recent discovery and characterization of host restriction factors, which provide a potent defense to invading retroviruses, has provided new targets for antiviral drug development. APOBEC3G (A3G) and APOBEC3F (A3F) are potent cytidine deaminases that block HIV-1 replication; HIV-1 expresses the Vif protein, which counteracts A3G and A3F by binding to them and inducing their proteasomal degradation. The Vif-A3G and Vif-A3F interactions provide two potential targets for development of small molecules which can interfere with the ability of Vif to degrade A3G or A3F. […] To identify inhibitors that can interfere with Vif mediated degradation of A3G and A3F, we have developed Hela cell lines that stably express A3G or A3F tagged with eYFP at the C-terminal end (A3G-eYFP or A3F-eYFP, respectively) and Vif. In the absence of an inhibitor, Vif induces degradation of A3G-eYFP and A3F-eYFP, and the cells are not fluorescent. In the presence of an inhibitor, it is expected that Vif will be unable to degrade A3G-eYFP and/or A3F-eYFP, resulting in an increase in yellow fluorescence. In this assays Vif A3G was screened against the Molecular Library Small Molecule Repository (MLSMR). NIH Chemical Genomics Center [NCGC] NIH Molecular Libraries Probe Centers Network [MLPCN] MLPCN Grant: MH093245 Assay Submitter (PI): Vinay Pathak, National Cancer Institute
5 uL of 700 cells/well of A3G-YFP cells are dispensed into black, clear bottom plates. The plates are incubated overnight at 37 deg C. 23 nL of compounds are added by pintool. The plates are incubated overnight at 37 deg C and then read on the TTP Acumen (Ex 488/ Em 500-530).
% is scaled to controls: 0 for no effect and ±100 for the full control effect.

Chain of UniProt Q9HC16 (Q9HC16 whole entry, looked up): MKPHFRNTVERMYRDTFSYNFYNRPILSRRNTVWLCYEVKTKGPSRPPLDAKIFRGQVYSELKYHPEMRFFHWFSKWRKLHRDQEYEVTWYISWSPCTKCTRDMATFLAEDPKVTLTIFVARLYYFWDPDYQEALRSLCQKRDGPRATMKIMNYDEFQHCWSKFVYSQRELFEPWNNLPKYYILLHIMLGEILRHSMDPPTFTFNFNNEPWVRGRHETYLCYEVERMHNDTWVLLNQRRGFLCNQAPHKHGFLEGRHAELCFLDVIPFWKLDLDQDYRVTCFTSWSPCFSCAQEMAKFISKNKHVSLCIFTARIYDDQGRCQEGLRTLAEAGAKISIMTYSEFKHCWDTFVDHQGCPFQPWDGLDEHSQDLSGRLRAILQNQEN

| Structure (SMILES) | activity, negative = active |
| --- | --- |
| O=C1NC(=O)N(c2ccc3c(c2)OCO3)C(=O)/C1=C\c1ccc(N2CCCCC2)o1 | inactive: -14.8% |
| O=C1NC(=O)N(Cc2ccccc2)C(=O)/C1=C/N1CCCc2ccccc21 | inactive: -6.41% |
| NC(N)=Nc1ccc2[nH]c3c(c2c1)C[C@@]1(O)[C@H]2Cc4ccc(O)c5c4[C@@]1(CCN2CC1CC1)[C@H]3O5 | inactive: -29.7% |
| Cc1cc(/C=C2/C(=O)NC(=O)N(c3ccc(Br)cc3)C2=O)c(C)n1C | inactive: -9.58% |
| CCCCCCCCCCCCCCCC[n+]1ccccc1 | inactive: -14.3% and inactive: -20.7% |
| NC(N)=Nc1ccc2[nH]c3c(c2c1)C[C@@]1(O)[C@H]2Cc4ccc(O)c5c4[C@@]1(CCN2CC1CC1)C3O5 (stereo partly specified) | inactive: -0.804% |
| O=C1NC(=O)N(Cc2ccccc2)C(=O)/C1=C\C=C\c1ccco1 | inactive: -1.61% |
| CN(C)[C@@H]1C(=O)C(C(N)=O)=C(O)[C@@]2(O)C(=O)C3=C(O)c4c(O)cccc4[C@@](C)(O)C3[C@H](O)C12 (stereo partly specified) | inactive: 3.89% and inactive: -7.65% |
| CN(C)C1C(=O)C(C(N)=O)=C(O)C2(O)C(=O)C3=C(O)c4c(O)cccc4C(C)(O)C3C(O)C12 (stereo unspecified) | inactive: -6.31% |
| COc1ccc(CNS(=O)(=O)c2cc3c(cc2C)N(C)CCO3)cc1 | inactive: -8.47% |
| C=C(C)[C@@H]1CC[C@]2(C(=O)O)CC[C@]3(C)[C@H](CC[C@@H]4[C@@]5(C)CC[C@H](O)C(C)(C)[C@@H]5CC[C@]43C)[C@@H]12 | inactive: 2.87% |
| COc1cc([C@@H]2c3cc4c(cc3[C@H](OC(C)=O)[C@H]3COC(=O)[C@H]23)OCO4)cc(OC)c1OC | inactive: -47.6% |
| COc1cccc(OC)c1-c1nn2c(-c3n[nH]c4c3CCC4)nnc2s1 | inactive: -19.9% |
| CC(=O)OC(C)(C)/C=C/C(=O)[C@](C)(O)[C@H]1[C@H](O)C[C@@]2(C)[C@@H]3CC=C4[C@H](C[C@H](O)C(=O)C4(C)C)[C@]3(C)C(=O)C[C@]12C | inactive: -18.8% |
| O=C1C=C2C=C[C@H]3C[C@]2(O1)[C@@H]1CCCCN13 | inactive: -17.5% |
| CC(=O)OC(C)(C)/C=C/C(=O)C(C)(O)C1C(O)CC2(C)C3CC=C4C(CC(O)C(=O)C4(C)C)C3(C)C(=O)CC12C (stereo unspecified) | inactive: -22.9% |
